Several values for one entry are separate records, joined by “and”; a condition that tells them apart may be missing. Identical values can stand only once. The whole screen tested about 48,000 compounds, of which about 1,200 (2.5%) were called active. About 2% were inconclusive and are not listed.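 Rule for the calls: active = activation of at least 60% and not above a set upper limit (about 1 call in 100 departs from these limits); inconclusive = activation of 40% to 60%, or above that upper limit; inactive = activation under 40%.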 This is one part of the list. Where a SMILES comes first, the peptide text is derived from it. The star is where a group is joined. Cbz = O=C(OCc1ccccc1)*
Target: Probable G-protein coupled receptor 32 (Homo sapiens) (UniProt O75388)
Experiment: qHTS for Agonists of Human Resolvin D1 Receptor DRV1; note: 0% is about no effect
Conditions: CHO-K1 GPR32 beta-arrestin PathHunter luminescence, 90 min; at 76.9 µM; active compounds read high; zero percent set by DMSO-only wells
Procedure, shortened: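 GPR32 activation in stably transfected CHO-K1 cells, detected as beta-arrestin recruitment by enzyme-fragment complementation. Compound exposure: 90 min, 37 °C.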

Chain of UniProt O75388 (O75388 whole entry, looked up): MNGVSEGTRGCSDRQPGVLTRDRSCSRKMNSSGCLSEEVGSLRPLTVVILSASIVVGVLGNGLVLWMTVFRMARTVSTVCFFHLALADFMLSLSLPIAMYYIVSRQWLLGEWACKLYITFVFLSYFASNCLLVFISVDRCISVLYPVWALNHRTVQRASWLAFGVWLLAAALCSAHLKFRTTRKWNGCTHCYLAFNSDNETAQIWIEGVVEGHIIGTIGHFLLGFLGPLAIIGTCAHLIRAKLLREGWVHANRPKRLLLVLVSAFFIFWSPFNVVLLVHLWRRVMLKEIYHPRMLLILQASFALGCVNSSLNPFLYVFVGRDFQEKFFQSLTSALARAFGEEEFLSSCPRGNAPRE

activation, inactive:
CCOc1ccc(CCNC(=O)CCCc2nnc3n(CCCOC)c(=O)c4sccc4n23)cc1 -2.7%, O=C1CC(c2ccccc2)Cc2[nH]c(=O)c(C(=O)Nc3ccc(F)cc3)cc21 (configuration not stated) 0.803%, Cc1c(C(=O)N2CCCCCC2)c(S(=O)(=O)Nc2ccc(OC(F)(F)F)cc2)c(C)n1C -6.21%, CCOC(=O)c1ccc(NC(=O)CSc2cc(-c3ccccc3)nc(C)n2)cc1 -22.4%, Cc1ccc(C)c(N(C)C(=O)CCNC(=O)Cn2cnc3ccccc3c2=O)c1 45.4%, COc1cc2nc(N3CCCN(C)CC3)nc(NC3CCN(Cc4ccccc4)CC3)c2cc1OC -5.13%, O=C(CNC(=O)c1ccccc1Cl)OCc1cc(=O)n2nc(C3CC3)sc2n1 11%, Cc1c(-c2ccc(Cl)cc2)c(=O)oc2c(CN3CCN(C)CC3)c(O)ccc12 -13.1%, CC1CCc2c(sc3nc(-c4cc5ccccc5oc4=O)nc(Cl)c23)C1 (configuration not stated) -5.41%, COc1cccc2sc(N(Cc3cccnc3)C(=O)C3CCCCC3)nc12 -35%, CCOC(=O)C1CCCN(C(=O)c2cc3c(Cl)nc4ccccc4c3s2)C1 (configuration not stated) 20.7%, CCC1Oc2ccc(C)cc2N(CC(=O)NCc2ccc(F)cc2)C1=O (configuration not stated) -1.78%, O=C(Nc1cccc(Cl)c1)C(Cc1ccccc1)n1cccc1 (configuration not stated) 9.43%, CC(C)c1nn2c(=O)cc(COC(=O)c3cccc(NC(=O)c4ccccc4F)c3)nc2s1 -18.6%, CCOc1ccc(C2c3c(-c4ccccc4O)n[nH]c3C(=O)N2Cc2cccnc2)cc1OC (configuration not stated) -12.4%, O=S(=O)(c1cccc2cnccc12)N1CCCNCC1 -8.16%, CCn1c(CN2CCCCC2)nc2cc(NC(=O)COc3cc(C)ccc3C(C)C)ccc21 2.63%, COc1ccc(Nc2nc(-c3ccccc3)c3cc(Br)ccc3n2)cc1 -42.1%, Cc1ccc(N(C)S(=O)(=O)c2ccc(-c3cnc(C4CC4)o3)cc2)cc1 -34.6%, CCOC(=O)c1cc(-c2ccccc2)n(-c2cccc(C(=O)NC(C)CC)c2)c1C (configuration not stated) -35%, O=C(Cn1ncc2c3ccccc3n(Cc3ccc(F)cc3)c2c1=O)NC1CCCCCC1 -9.48%, O=C(C1CCCCC1)N(Cc1cccnc1)c1nc2c(F)cccc2s1 -33.9%, Clc1ccccc1CNc1nc2ccccc2c2nc(-c3ccccc3)nn12 -7.15%, CC(C)Oc1ccc(CNC(=O)c2ccc3c(c2)N(Cc2ccc(F)cc2)CCS3)cc1 -21.1%, OC[C@H]1NC[C@@H](O)[C@@H]1O -0.486%, NC(=S)c1ccc[n+]([C@@H]2O[C@@H](COP(=O)([O-])OP(=O)(O)OC[C@H]3O[C@@H](n4cnc5c(N)ncnc54)[C@H](OP(=O)(O)O)[C@@H]3O)C(O)C2O)c1 (some centres not stated) 8.95%, COc1cc2c(cc1OC)C(COc1ccccc1OC)N(C(=O)c1ccc(S(=O)(=O)N3CCCC3)cc1)CC2 (configuration not stated) -5.88%, Cc1ccc(C)c(NC(=O)N2CCN(c3nnc(C)c4c(C)n(-c5ccccc5)nc34)CC2)c1 -4.53%, CC(C)[C@H](NC(=O)OCc1ccccc1)C(=O)N[C@H](C=O)Cc1ccccc1 (Cbz-Val-Phe-aldehyde) -6.37%, Cc1cc(C)c(S(=O)(=O)Nc2ccc(-c3ccc(N4CCCCC4)nn3)cc2)c(C)c1 13.5%, CCOc1ccccc1NC(=O)c1c(NC(=O)Cc2ccccc2)sc2c1CCCC2 -26.1%, COc1ccc(C)cc1NC(=O)CN1CCCN(S(=O)(=O)c2ccc(Br)cc2)CC1 -10%, Cn1cc(C(=O)N2CCN(c3cccc(Cl)c3)CC2)c(=O)c2cc(S(=O)(=O)N3CCCC3)ccc21 5.68%, O=C(O)Cc1cccc2ccccc12 45.4% and -6.42%, COCCCNC(=O)CN1C(=O)COc2ccc(S(=O)(=O)N3CCOCC3)cc21 -4.41%, CCOc1ccc(NC(=O)CSc2ccc3ccccc3n2)cc1 -17%, COC(=O)c1cc(OC)c(OC)c(OC)c1NC(=O)c1cc(=O)n(C)c(=O)n1C -7.72%, COC(=O)c1cccc(Nc2c(-c3ccc(O)cc3)nc3nc[nH]n23)c1 -18.8%, COc1ccc(N2CCN(C(=O)c3cn(C4CCCCC4)c(=O)c4c3c3ccccc3n4C)CC2)cc1 -33.9%, O=C(CCNS(=O)(=O)c1cccc2nonc12)Nc1ccc(F)cc1 -4.46%, COC(=O)CSCc1nc(-c2ccc(C(=O)OC)cc2)oc1C -5.3%, CCN(CC)c1nn2c(=O)c(C(=O)NCc3cccc(OC)c3OC)cnc2s1 -0.526%

Source: PubChem BioAssay AID1346428 (National Center for Advancing Translational Sciences (NCATS), 2018)
